Screen size: about 46,000 compounds; about 60 (0.1%) were called active. Not shown: some 3% with an inconclusive outcome. Calls follow the shape of the dose curve; as a rule, active = well fitted inhibition curve with a large enough effect; inconclusive = small, poorly fitted or top-dose-only effect; inactive = no such curve, though single readings can be large or run the other way. The list shows a part of the results.
Assay: Primary qHTS assay for Inhibitors of ovarian cancer metastasis using an organotypic tumor microenvironment (TME) model. Also: nearly all actives have a fitted effect of over 65% in size.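 As to activity change, negative = inhibition: plate controls were DMSO wells for no effect and tomatine positive control wells for full effect.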
Settings: SKOV3ip1-GFP adhesion/invasion on 3D omental model, fluorescence; series mostly up to 45.8 µM; activity change, negative = inhibition: at the top concentration
How it was run: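 Primary human omental fibroblast/mesothelial 3D culture pre-formed 48 h. SKOV3ip1-GFP cells added with compounds (0.36-46 umol/L), incubated 2 h RT/16 h 37 C, fixed; GFP cells quantified at 488/509 nm.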

Activity change, negative = inhibition, inactive:
CC(C)Cc1ccc(S(=O)(=O)Nc2ccc3[nH]c(=O)[nH]c3c2)cc1 -23.5%, CCOc1ccc(OCC)c(NC(=O)c2cnc3c(-c4ccccc4)c(C)nn3c2C)c1 -3.52%, O=C(NCc1ccccc1F)C(=O)NCC(c1cccs1)S(=O)(=O)c1cccs1 (configuration not stated) -3.43%, O=C(CCC1N=C2c3ccccc3N=C(SCc3ccccc3Cl)N2C1=O)NCc1cccs1 (configuration not stated) 8.31%, O=c1c2oc3ccccc3c2n(Cc2cccc(Cl)c2)c(=O)n1Cc1ccc2c(c1)OCO2 -0.84%, Cc1ccc(-n2c(=O)c3c(c4cc(C)ccc4n3C)n(CC(=O)NCCC3=CCCCC3)c2=O)cc1 1.21%, COC(=O)c1cc2oc(C)cc2n1Cc1cccc(Cl)c1 -11.3%, CCOc1ccccc1NC(=O)c1c(NCc2ccc(C)o2)sc2c1CCCCC2 0.671%, Cc1ccc(Cc2nc3ccccc3nc2SCC(=O)N2CCCCC2)cc1 -12.9%, NC(=O)c1ncn([C@@H]2O[C@H](CO)[C@@H](O)[C@@H]2O)c1N -15.4%, CCOc1ccc(CN2CCN(S(=O)(=O)c3ccc(Cl)cc3)CC2)cc1 1.88%, CCOc1ccc(-c2nonc2NC(=O)c2oc3ccc(Cl)cc3c2C)cc1 -31.7%, Cc1ccn2c(=O)c(C(=O)Nc3ccc(F)c(C(F)(F)F)c3)cnc2c1 1.83%, Cc1oc(-c2ccccc2F)nc1CN1CCC(C(=O)NCCc2ccc(Cl)cc2)CC1 -9.4%, COc1ccc(-c2nnn3c2nc(NCc2ccccc2)c2ccccc23)cc1 50.5%, COc1cccc(NC(=O)c2oc3ccccc3c2NC(=O)COc2ccccc2C)c1 -14.1%, COc1ccc2[nH]cc(CCNC(=O)Nc3c(C)cccc3C)c2c1 -9.52%, Cc1cc(C)n2nc(SCC(=O)Nc3ccc(O)cc3)nc2n1 29.5%, CCOc1ccc(-c2cc(C(=O)NCc3ccc(OCC)c(OC)c3)[nH]n2)cc1 -5.58%, COc1ccc(-c2ccc(NS(=O)(=O)c3ccccc3)cc2)nn1 -13.1%, CCc1cccc(CC)c1NC(=O)CCS(=O)(=O)c1ccc(Br)cc1 -3.53%, O=c1c2sc3ccccc3c2n(Cc2ccc(F)cc2)c(=O)n1Cc1ccccc1 -7.42%, COc1cc(-c2nc(Cn3nnc(C(=O)Nc4ccccc4C)c3C)c(C)o2)cc(OC)c1OC -11.3%, Cc1ccccc1-c1nc2c(c(SCc3cccc(Cl)c3)n1)Cc1c(CO)cnc(C)c1O2 -3.28%, COc1cc(C)ccc1OCCSc1nc2ccc(NC(=O)c3ccc4c(c3)OCO4)cc2s1 -12.3%, Clc1cccc(N2CCN(c3nc4ccccc4c4nc(-c5cccnc5)nn34)CC2)c1 11.1%, Cn1c(CNc2ccc(C(=N)N)cc2)nc2cc(C(=O)N(CCC(=O)O)c3ccccn3)ccc21 6.53% [at 23.2 µM], COc1ccc(C)cc1NC(=O)c1ccc2c(c1)N(Cc1cccc(Cl)c1)C(=O)c1ccccc1S2=O (configuration not stated) 4.17%, CNC1CCCN(c2c(F)cc3c(=O)c(C(=O)O)cn(C4CC4)c3c2OC)C1 (configuration not stated) -7.53%, CCOC(=O)c1noc2ncn(CC(=O)Nc3ccc(OC)c(Cl)c3)c(=O)c12 40%, Cc1ccc(S(=O)(=O)c2nc(-c3cccs3)oc2SC(C)c2ccccc2)cc1 (configuration not stated) -3.01%, CCOC(=O)c1ccc(NC(=O)Cc2coc3cc(C)cc(C)c23)cc1 -9.45%, Cc1cccc(Cn2nnc3c(=O)[nH]c(C4CCN(C(=O)c5ccccc5F)CC4)nc32)c1 4.04%, CCCC(=O)NCc1nc2cccnc2n1Cc1ccc(F)cc1 -7.46%, Cc1cccc(NC(=O)CSc2nc(=O)n(CCN3CCOCC3)c3c2CCC3)c1C 11.3%, COc1ccc(CNC(=O)c2cnc(N3CCCC3)nc2C)cc1 2.23%, O=C(CSc1cn(CC(=O)N2CCOCC2)c2ccccc12)Nc1ccccc1C(F)(F)F -9.28%, CCN(C(=O)CSc1nnc(C)n2c1cc1occc12)c1ccccc1 -5.64%, CCCCc1nn2c(=O)cc(COC(=O)c3ccccc3NC(=O)C3CCCCC3)nc2s1 -1.74%, COc1ccc(S(=O)(=O)NCc2cccn2Cc2cccc(C)c2)cc1OC 1.26%, CCOC(=O)c1c(-c2ccccc2)oc2ccc(NS(=O)(=O)c3ccccc3)cc12 7.05%, COc1ccc(-c2c(C)c3ccc(O)c(CN4CCN(C)CC4)c3oc2=O)cc1OC 5%, Cc1ccccc1C(=O)Nc1nc2c(s1)CC(C(C)(C)C)CC2 (configuration not stated) -5.38%, CCOC(=O)CSc1nc2c([nH]c3ccccc32)c(=O)n1-c1ccc(OCC)cc1 0.119%, COc1ccc(CSc2nc3ccncc3n2Cc2nc(-c3ccc(OC)c(OC)c3)oc2C)cc1 2.68%, Cc1cccc2sc(N(Cc3cccnc3)C(=O)C3CCCCC3)nc12 -24.5%, CN1C(=O)C2CCCCN2c2ccc(C(=O)NCc3ccccc3Br)cc21 (configuration not stated) -25.5%, Clc1cccc(-c2noc3ncnc(NC4CCCCC4)c23)c1 -0.79%, O=C(CSc1nc2c([nH]c3ccccc32)c(=O)n1-c1ccc(F)cc1)N1CCCCCC1 20%, COc1ccccc1CNC(=O)Nc1ccc2c(c1)N(C)C(=O)c1ccccc1S2 -15.2%, O=C(Nc1ccc(Br)cc1)c1ccc(Br)c(S(=O)(=O)NCc2ccccc2)c1 -28.7%, COc1cccc(-c2cc(C(=O)NCCc3ccc(C)cc3)[nH]n2)c1 10.3%, CC(=O)c1c(C)n(-c2cccc(C)c2)c2ccc(OC(=O)COc3ccccc3)cc12 4.42%, Cc1ccc(NS(=O)(=O)c2c(C(=O)N3CCCCCC3)c(C)n(C)c2C)cc1F 15.8%, CCOC(=O)c1c(C)c(C(=O)NCCc2ccc(OC)cc2)c(C)n1CC 8.04%, Cc1ccc(C(=O)Nc2ccc3c(c2)N(C)C(=O)c2ccccc2S3)cc1F 11.3%, CC(=O)c1ccc(NC(=O)CSc2nc(-c3ccccc3F)nc3c2c(=O)n(C)c(=O)n3C)cc1 6.84%, Cc1ccc(C(c2sc3nc(-c4ccco4)nn3c2O)N2CCCCC2)cc1 (configuration not stated) 0.344%, Cc1ccc(N(C)S(=O)(=O)c2ccc3[nH]cc(C(=O)O)c(=O)c3c2)cc1C -8.84%, CCc1nn(CC(=O)Nc2c(C)cc(C)cc2C)c(=O)c2cc3sccc3n12 -8.16%, C=Cc1ccc(Cn2c(=O)n(-c3ccccc3C)c(=O)c3c4c(sc32)CN(C(C)=O)CC4)cc1 4.46%, O=C(NCc1cccs1)c1ccc(CSc2nc3ccncc3n2Cc2cccc(F)c2)cc1 -5.55%, CCOC(=O)c1c(-c2ccc(C)cc2)csc1NC(=O)c1cc(=O)c2cc(C)c(C)cc2o1 -5.94%, CN1CCC(=C2c3ccccc3C=Cc3ccccc32)CC1 4.04%, CCOc1ccc2nc(N(Cc3cccnc3)C(=O)c3ccc4c(c3)OCCO4)sc2c1 1.57%

outcome, inactive:
O=C(NCc1cccc(Cl)c1)c1ccc(CS(=O)Cc2ccccc2Cl)o1 (configuration not stated), COc1ccccc1OCC(=O)NCC1(N2CCOCC2)CCCCC1, Cc1nc(C)c(CCNS(=O)(=O)c2ccc(C)c(C)c2)s1, O=c1oc2c(F)cc(F)cc2cc1S(=O)(=O)c1ccc(F)cc1, CCOc1ccc(N(CC)C(=O)c2cc3c(=O)oc4ccccc4c3s2)cc1, Cc1cccc(NC(=O)C(=O)NCC(c2cccnc2)N2CCc3ccccc32)c1C (configuration not stated), O=C(Cn1cc(S(=O)(=O)c2ccc(F)cc2)c(=O)c2cc3c(cc21)OCO3)Nc1ccccc1, CC1=C(C(=O)Nc2ccc(C)cc2C)C(CC(C)C)n2nc(SCc3ccccc3C)nc2N1 (configuration not stated), COC(=O)c1ccccc1NC(=O)CCCn1nc(C)c2sc3ccccc3c2c1=O, Cc1ccc(NC(=O)CSc2ncccc2C(=O)Oc2ccccc2Cl)cc1Cl, CCc1ccc(NC(=O)Cn2c(=O)n(CCCC(=O)NCc3ccccc3OC)c(=O)c3ccccc32)cc1, Cc1cc(NC(=O)CN(C)S(=O)(=O)c2ccc3c(c2)CCCC(=O)N3)ccc1Br, CCOC(=O)c1cc(-c2ccccc2)n(CCC(=O)Nc2ccc(OC)c(Cl)c2)c1C, CC(=O)N1c2ccc(S(=O)(=O)N3CCCCCC3)cc2CC1C(=O)NCc1cccc(F)c1 (configuration not stated), Cc1ccc(C)c(NC(=O)c2ccc(=O)n(Cc3ccc(F)cc3)c2)c1, CCOc1ccc(CC(=O)NCCS(=O)(=O)N2CCN(c3ccccc3OC)CC2)cc1, CCS(=O)(=O)N1CCc2cc(C(=O)N3CCN(c4ccccc4)CC3)ccc21, Cc1ccc(NC(=O)Cn2c(=O)n(Cc3ccc4c(c3)OCO4)c(=O)c3ccc(C(=O)NC4CCCCC4)cc32)cc1, Cc1cc([N+](=O)[O-])ccc1NC(=O)CSc1nccn1C, CCOc1ccc(NC(=O)c2cc3c(=O)n4cccc(C)c4nc3s2)cc1, COc1ccc2c(c1)c1c(c(=O)n(-c3cccc(Cl)c3)c(=O)n1C)n2C, COc1ccc(S(=O)(=O)c2cn(CC(=O)Nc3ccccc3)c3ccc(Cl)cc3c2=O)cc1, COc1cccc2cc(-c3nc(-c4cccs4)no3)c(=O)oc12, COc1cc(NC(=O)CCc2c(C)nc3c(c(C)nn3-c3ccccc3)c2C)cc(OC)c1OC, COc1ccc(Br)cc1CNC(=O)CCC(=O)N1CCSc2ccccc21, CCOc1ccc(CNC(=O)Cn2nc(C)c3sc4ccccc4c3c2=O)cc1, CCN(Cc1ccccc1)C(=O)Nc1ccc2c(c1)N(C)C(=O)c1ccccc1S2, COc1ccc(C)cc1NC(=O)CN1C(=O)CCc2cc(S(=O)(=O)N3CCOCC3)ccc21, Cc1ccc(NC(=O)C2CCN(c3nc4ccccc4[nH]3)CC2)cc1Cl, CC1Cc2cc(S(=O)(=O)NCc3ccc(F)cc3)ccc2N1C(=O)C1CCC1 (configuration not stated), COC(=O)c1cc2sc(C)cc2n1Cc1ccc(F)cc1Cl, COc1cccc(CSc2nc3cc(OC)c(OC)cc3c3nc(CCn4nc(C)cc4C)nn23)c1

From PubChem BioAssay AID1963576 (National Center for Advancing Translational Sciences (NCATS), 2024)
